# Data reported in PubChem BioAssay AID1347073 (National Center for Advancing Translational Sciences (NCATS), 2019).
# About 200 (0.44%) of roughly 45,000 compounds were called active. Roughly 7% stayed inconclusive and do not appear here. Calls follow the shape of the dose curve; as a rule, active = well fitted activation curve with a large enough effect; inconclusive = small, poorly fitted or top-dose-only effect; inactive = no such curve, though single readings can be large or run the other way. The list shows a part of the results.
# Assay: qHTS of TDP-43 Inhibitors: NCGC Sytravon Library Screen; also: 0% is about no effect; nearly all actives have a fitted effect of over 55% in size
# Settings: yeast TDP-43 toxicity rescue, BacTiter-Glo growth, 24 h; series mostly up to 46.1 µM; growth rescue (activation): at the top concentration
# Outline: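 TDP-43-expressing yeast, pregrown in raffinose, seeded at OD600 0.02 in galactose medium with compound for 24 hr at 30 deg C. Growth read by BacTiter-Glo luminescence, so rescue of toxicity appears as activation.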
row,SMILES,growth rescue (activation)
1,O=C(Nc1ccc(OC(F)(F)F)cc1)c1noc2c1CCCC2,inactive: 25.2%
2,CCOc1ccccc1C(=O)NC(C(=O)NCc1ccccc1OC)C(C)C (stereo unspecified),inactive: -0.433%
3,COc1ccccc1C(=O)N/N=C(\C)CC(=O)Nc1ccccn1,inactive: -7.68%
4,CCCCNC(=O)C1CC(=O)N(CCc2ccc(C)cc2)C1 (stereo unspecified),inactive: 3.62%
5,N=C1C(c2nc(-c3ccc(F)cc3)cs2)=C(O)CN1CCCN1CCOCC1,inactive: 7.63%
6,Cc1ccc2c(c1)C1CN(C)CCC1N2C(=O)c1ccccc1NS(=O)(=O)c1ccc(F)cc1 (stereo unspecified),inactive: -1.89%
7,CC(NC(=O)COC(=O)c1ccc[nH]c1=O)c1ccccc1 (stereo unspecified),inactive: -1.88%
8,c1csc(-c2nc(N3CCOCC3)c3ccccc3n2)c1,inactive: 10.7%
9,CCN1CCCC1Cn1cnc2c([nH]c3ccc(OC)cc32)c1=O (stereo unspecified),inactive: 23.8%
10,O=[N+]([O-])c1cccc(C([O-])=C(C(=S)Nc2cccc3ccccc23)[n+]2ccccc2)c1,inactive: -3.74%
11,O=C(COC(=O)/C=C/c1ccco1)Nc1ccc(F)cc1Cl,inactive: 5.83%
12,CCC1(C)Cc2ccccc2-c2[nH]c(=S)[nH]c(=O)c21 (stereo unspecified),inactive: 7.32%
13,NS(=O)(=O)c1ccc(NC(=O)COc2ccc(S(=O)(=O)N3CCCC3)cc2)cc1,inactive: 5.59%
14,Cc1ccc(NC2CCCN(C(=O)c3cc(C(C)C)[nH]n3)C2)cc1C (stereo unspecified),inactive: 11.3%
15,O=C(Cn1ccc2ccccc2c1=O)NCC(=O)Nc1ccc(F)cc1F,inactive: 17.3%
16,O=C(Nc1ccc(S(=O)(=O)NCC2CCCO2)cc1)c1cnccn1 (stereo unspecified),inactive: -1.53%
17,Cc1ccc(S(=O)(=O)N2CCOCC2)cc1NC(=O)CNC1CCCC1,inactive: 7.76%
18,CCCS(=O)(=O)c1cn2cccc(N)c2c1S(=O)(=O)CCC,inactive: 17.9%
19,Cc1cc(Cl)ccc1NC(=O)CN1C(=O)NC2(CCCC2)C1=O,inactive: 6.78%
20,Cc1cc(NS(=O)(=O)c2ccc(NC(=O)CSc3nc4sc(C)c(C)c4c(=O)[nH]3)cc2)no1,inactive: -5.24%
21,O=C(OCc1nc2ccccc2[n+]([O-])c1C(=O)c1ccccc1)c1cccs1,inactive: 20.1%
22,Cc1nn(-c2ccccc2)c(C)c1NC(=O)COc1ccc(F)cc1Cl,inactive: -17.8%

row,SMILES,growth rescue (activation)
1,Cc1cc(C(=O)COC(=O)c2ccco2)c(C)n1Cc1ccco1,inactive: -1.89%
2,CCn1c(Cc2ccccc2)nnc1SCc1ccc([N+](=O)[O-])cc1,inactive: 15.7%
3,Cc1cc(C)c(S(=O)(=O)NCCc2cc3ccc(C)c(C)c3[nH]c2=O)c(C)c1,inactive: 2.15%
4,NNc1nccc(Nc2ccccc2C(=O)O)n1,inactive: -11%
5,O=C(c1ccc(Cl)cc1Cl)N1CCC(C(=O)N2CCOCC2)CC1,inactive: 6.56%
6,COc1ccc(CC(N)c2csc(NC(=O)NCc3ccccc3)n2)cc1 (stereo unspecified),inactive: 10.3%
7,O=C(Oc1cccc(C(=S)N2CCOCC2)c1)c1ccccc1,inactive: 25.4%
8,CCOC(=O)c1cc(-c2cccc([N+](=O)[O-])c2)on1,inactive: -1.76%
9,COc1ccccc1-n1cnnc1SCC(=O)Nc1cccc(S(N)(=O)=O)c1,inactive: 0.617%
10,CCOCCCNC(=S)N1CCN(C(=O)C(=O)Nc2ccc(C(=O)OC)cc2)CC1,inactive: 20%
11,COc1ccc(CN2CCNC(=O)C2CC(=O)N2CCc3ccccc3C2)c(OC)c1 (stereo unspecified),inactive: -15.5%
12,Cc1ccc(CNC(=O)CN2C(=O)NC3(CCCC3)C2=O)cc1,inactive: -4.78%
13,C=CCn1c(-c2cccc(S(=O)(=O)N(CC)CC)c2)n[nH]c1=S,inactive: -2.1%
14,NNC(=O)CNS(=O)(=O)c1ccc([N+](=O)[O-])cc1,inactive: -7.26%
15,Cc1ccc(N/C=C/C(=O)c2cccs2)cc1C,inactive: -8.8%
16,NS(=O)(=O)c1ccc(CCNC(=O)CNC(=O)c2ccccc2Br)cc1,inactive: 8.42%
17,COC(=O)N/N=C/c1cc(Br)ccc1O,inactive: 10.2%
18,Cn1c(CC(=O)Nc2ccccc2Cl)nnc1SCC(=O)Nc1nncs1,inactive: -7.02%
19,COc1ccc(NS(=O)(=O)c2ccc(NS(=O)(=O)c3cccs3)cc2)cc1,inactive: 11.8%
20,CS(=O)(=O)Nc1cccc(-c2cc(NC=O)c3ncc(-c4ccc(F)c(Cl)c4)n3c2)c1,inactive: 7.32%
21,O=C(NCc1ccccc1Cl)C1CCN(C(=O)c2ccco2)CC1,inactive: -6.75%
22,COc1ccc(S(=O)(=O)N2CCOCC2)cc1Br,inactive: 22.4%

row,SMILES,growth rescue (activation)
1,NS(=O)(=O)c1cc(C(=O)NC2CCSc3ccccc32)ccc1Cl (stereo unspecified),inactive: 23.6%
2,COc1ccc(NC(=O)COc2ccc3c(c2)OCO3)cc1,inactive: -19.8%
3,CN(CC(=O)Nc1cccc(Cl)c1)C1=NS(=O)(=O)c2ccccc21,inactive: -0.816%
4,CC(C)Oc1ccc(/C(O)=C2/C(=O)C(=O)N(CCN(C)C)C2c2cccs2)cc1 (stereo unspecified),inactive: 26.1%
5,Cc1csc(SCC(=O)N2CCN(S(=O)(=O)c3ccccc3)CC2)n1,inactive: -7.56%
6,COc1cc(CN(C2CCCCC2C)S(=O)(=O)c2ccc(S(=O)(=O)NC3CC3)cc2)cc(OC)c1OC (stereo unspecified),inactive: 6.1%
7,CSc1nc2sc3c(c2c(=O)[nH]1)CCc1ccccc1-3,inactive: 14.5%
8,O=C(c1cccc(S(=O)(=O)N2CCCC2)c1)N(Cc1ccco1)C1CCS(=O)(=O)C1 (stereo unspecified),inactive: 2.24%
9,COc1cccc(C(=O)Nc2ccc3c(c2)OCO3)c1OC,inactive: 18.5%
10,CCc1nnc(N/N=C/c2ccc(-c3ccc([N+](=O)[O-])cc3)o2)n1N,inactive: 25.9%
11,O=C(O)c1cccc(NC(=S)N/N=C/c2ccccc2OCc2ccc(Br)cc2)c1,inactive: 19.8%
12,Cc1nc(NC(=O)CSc2cc(C)c3ccccc3n2)c(Cl)cc1Cl,inactive: -5.9%
13,CN(CC(=O)NC(=O)Nc1ccccc1F)Cc1ccccc1,inactive: -6.54%
14,O=C(c1cccc([N+](=O)[O-])c1)c1ccc2c(c1)OCCOCCOCCO2,inactive: 19.4%
15,COc1ccc(S(=O)(=O)N2CCN(C(=O)Cc3ccsc3)CC2)cc1,inactive: 21.8%
16,COc1ccc(Br)cc1C(=O)Nc1cccc2ncccc12,inactive: 2.73%
17,CC(C)c1ccc(NC(=S)NN2C(C)CCCC2C)cc1 (stereo unspecified),inactive: 7.92%
18,COC(=O)c1c(C(=O)OC)c2cc(C)ccn2c1Cl,inactive: 20.7%
19,Cc1cccc(N2C(=O)C(CC(=O)Nc3cccc(F)c3)N(CCc3ccncc3)C2=O)c1 (stereo unspecified),inactive: 3.4%
20,Cc1ccc(CN(C)C(=O)CC2C(=O)NCCN2CC2CCCCC2)cc1 (stereo unspecified),inactive: 1.63%
21,CC1CCN(S(=O)(=O)c2ccc(NC(=O)C3CC3)cc2)CC1,inactive: 31%
22,COc1cc(/C=N/NC(=O)c2ccncc2)ccc1OC(=O)c1cc(OC)c(OC)c(OC)c1,inactive: 13.9%

row,SMILES,growth rescue (activation)
1,COc1ccccc1NC(=O)N1CCCC1,inactive: -8.9%
2,CCOc1ncccc1C(=O)NCC(c1ccco1)N1CCCCC1 (stereo unspecified),inactive: 23.3%
3,COc1cccc(CCNC(=O)CC2C(=O)NCCN2Cc2ccc(Cl)c(F)c2)c1 (stereo unspecified),inactive: 8.5%
4,COc1ccc(NC(=O)CCC(=O)N(Cc2ccc(OC)c(OC)c2)c2nccs2)cc1,inactive: -2.54%
5,CC1CN(C(=O)COC(=O)c2ccccc2O)CC(C)O1 (stereo unspecified),inactive: -9.19%
6,Cc1ccc(NC(=O)c2ccc([N+](=O)[O-])cc2)cc1S(=O)(=O)N(C)C,inactive: 8.09%
7,COC(=O)c1ccc(OC(=O)c2cccnc2SC)cc1,inactive: 8.83%
8,COc1ccc(NC(=O)c2ccc3c(c2)C(=O)N(Cc2ccncc2)C3=O)cc1S(N)(=O)=O,inactive: 4.64%
9,COc1ccc(OC)c(NC(=O)c2sc3ncnc(N4CCN(c5ccccn5)CC4)c3c2C)c1,inactive: 8.84%
10,Cc1ccc(NC(=O)C(C)Sc2n[nH]c(CNc3ccccc3)n2)cc1 (stereo unspecified),inactive: -19.1%
11,COc1ccc(/C=N/NC(=O)c2cccc(NC(=O)c3ccc(F)cc3)c2)c(C(=O)O)c1OC,inactive: 2.89%
12,COc1ccccc1CN1CCNC(=O)C1CC(=O)NCCc1cnccn1 (stereo unspecified),inactive: -5.91%
13,COc1ccc(C)cc1S(=O)(=O)N(CC(=O)Nc1cc([N+](=O)[O-])ccc1C)c1ccc(C)c(C)c1,inactive: 7.48%
14,S=C(NCc1ccco1)NCC1CCCO1 (stereo unspecified),inactive: 14.2%
15,O=C(CSCc1ccc(Br)cc1)NCc1ccccn1,inactive: 9.63%
16,Nc1c(C(=O)NCC2CCCO2)sc2nc3c(c(-c4ccco4)c12)CC/C3=C\c1ccco1 (stereo unspecified),inactive: 5.88%
17,COc1ccc(N(C(=O)c2snc(C(N)=O)c2N)C(C(=O)NCC2CCCO2)c2ccc3ncccc3c2)cc1OC (stereo unspecified),inactive: -7.43%
18,CCN(CC)C(=O)CCCSc1nnc(Nc2ccccc2F)s1,inactive: -26.6%
19,CCn1c(COc2c(C)cccc2C)nnc1SCc1nc2ccccc2c(=O)[nH]1,inactive: 11.5%
20,Nc1nc2ccc(C(=O)NCCOC(=O)C3CCCCC3)cc2s1,inactive: -4.31%
21,COc1ccc(CN2CCN(CCc3ccccc3)C(CCO)C2)cc1Cn1cncn1 (stereo unspecified),inactive: -0.996%
22,Cc1ccc(C(C(=O)NC2CCCCC2)N2CCCC2)cc1 (stereo unspecified),inactive: 19.9%

row,SMILES,growth rescue (activation)
1,Cc1ccc(NC(=O)CC(=O)c2ccccc2)cc1C,inactive: 22.4%
2,O=C(Cn1c(COc2ccccc2)nc2ccccc21)Nc1cc(Cl)cc(Cl)c1,inactive: 12.9%
3,Cc1ccc(C)c(S(=O)(=O)Nc2ccc3oc(C)c(C(=O)O)c3c2)c1,inactive: 25.2%
4,CC(O)CNc1ccc(-c2nn(C)c(=O)c3ccccc23)cc1[N+](=O)[O-] (stereo unspecified),inactive: 13.7%
5,COc1cccc(NC(=O)c2ccc(-n3cnnn3)cc2)c1,inactive: 15%
6,CN(CC(=O)Nc1ccc2c(c1)OCO2)S(=O)(=O)c1ccc(F)cc1,inactive: 18.3%
7,Cc1ccc(-c2nnc(OCc3nc4ccccc4n3C)c3ccccc23)cc1,inactive: 5.22%
8,COc1ccc(OC)c(S(=O)(=O)N2CCC(C(=O)NC3CC3)CC2)c1,inactive: -3.42%
9,S=c1[nH]nc(COc2ccccc2)n1-c1ccc(Cl)cc1,inactive: -12.4%
10,COc1ccccc1-c1nnc(SCC(=O)c2ccc(C3CCCCC3)cc2)n1Cc1ccco1,inactive: 23.1%
11,COc1ccc(C(=O)O)cc1S(=O)(=O)Nc1ccc(C)cc1,inactive: 0.952%
12,Cc1cccc(OCC(=O)OCC(=O)Nc2sccc2C(N)=O)c1,inactive: -0.0431%
13,O=C(/C=C/c1ccc(Br)cc1)NCc1cccs1,inactive: 23.7%
14,O=C(CCC(=O)Nc1ccc(Br)cc1)N/N=C/c1cc([N+](=O)[O-])ccc1O,inactive: 4.99%
15,Cc1cc(OCc2cc(C(=O)N(C)C3CCOCC3)no2)cc(C)c1Cl,inactive: 23.3%
16,CC(C)N(c1ccccc1)c1ccc(NC(=O)COC(=O)CCN2C(=O)c3cccc([N+](=O)[O-])c3C2=O)cc1,inactive: -1.3%
17,CCNCC(=O)N1c2ccccc2CCc2ccc(NC(=O)OC(C)C)cc21,inactive: 2.88%
18,Cc1ccc(C(=O)N(CCN2CCCCC2)CC2CCCN(C3CCCC3)C2)s1 (stereo unspecified),inactive: -12.4%
